From patent publication US20210317231A1 (BYONDIS B V, published 2021) come the findings set out here.

T1: human 5T4 oncofoetal antigen (human, UniProt Q13641 32-420)
T1 sequence (looked up): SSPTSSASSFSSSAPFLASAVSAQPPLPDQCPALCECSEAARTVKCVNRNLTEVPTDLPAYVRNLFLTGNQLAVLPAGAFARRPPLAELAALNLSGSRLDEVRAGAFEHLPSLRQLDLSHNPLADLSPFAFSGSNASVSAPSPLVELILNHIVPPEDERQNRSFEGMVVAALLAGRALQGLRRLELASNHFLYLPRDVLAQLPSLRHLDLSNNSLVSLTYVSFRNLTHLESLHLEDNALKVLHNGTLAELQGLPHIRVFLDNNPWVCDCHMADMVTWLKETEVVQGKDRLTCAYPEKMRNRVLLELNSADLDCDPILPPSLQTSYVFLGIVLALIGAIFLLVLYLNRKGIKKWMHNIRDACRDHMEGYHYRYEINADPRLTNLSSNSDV

B1: 789c-vc-seco-DUBA (other)
heavy: QSVEESGGGLVQPGGSLRLSCAASGFSLSSYWMSWVRQACGKGLEWIGIIAGRGSTYYASWAKGRFTISRDNSKNTLYLQMNSLRAEDTAVYYCARVSSIYYTFNLWGQGTLVTVSS[human IgG1 constant region not shown]
light: DIVMTQSPDSLAVSLGERATINCQSSQSVYSNNELSWYQQKPGQPPKLLIYYASTLASGVPDRFSGSGSGTDFTLTISSLQAEDVAVYYCQGSYYSGSGWYYAFGGGTKLEIKRTVAAPSVFIFPPSDEQLKSGTASVVCLLNNFYPREAKVQWKVDNALQSGNSQESVTEQDSKDSTYSLSSTLTLSKADYEKHKVYACEVTHQGLSSPVTKSFNRGEC
modifications: chain 1 pos 40: engineered Cys (Kabat HC 41) carrying the vc-seco-DUBA linker drug, written C; average DAR 1.7
notes: also called 789c ADC
B2: 833a-vc-seco-DUBA (other)
heavy: EVQLVESGGGLIQPGGSLRLSCAASGIDLSHYVVGWVRQACGKGLEWVSIIYGSGRTYYANWAKGRFTISKDNSKNTLYVRMNSLRAEDTAVYYCARDASVSVYYWGYFDLWGQGTLVTVSS[human IgG1 constant region not shown]
light: AYDMTQSPSSVSASVGDRVTITCQASQSIGSELAWYQQKPGKAPKLLIYRASTLESGVPSRFSGSGSGTDFTLTISSLQPEDFATYYCQQGYTYSEIDNAFGGGTKVEIKRTVAAPSVFIFPPSDEQLKSGTASVVCLLNNFYPREAKVQWKVDNALQSGNSQESVTEQDSKDSTYSLSSTLTLSKADYEKHKVYACEVTHQGLSSPVTKSFNRGEC
modifications: vc-seco-DUBA linker drug on the engineered cysteine at HC 41 (Kabat)
B3: 833c-vc-seco-DUBA (other)
heavy: EVQLEESGGGLVKPGGSLRLSCAASGIDLSHYVVGWVRQACGKGLEWVSIIYGSGRTYYANWAKGRFTISRDNSKNTLYLQMNSLRAEDTAVYYCARDASVSVYYWGYFDLWGRGTLVTVSS[human IgG1 constant region not shown]
light: DIQMTQSPSTLSASVGDRVTITCQASQSIGSELAWYQQKPGKAPKLLIYRASTLESGVPSRFSGSGSGTEFTLTISSLQPDDFATYYCQQGYTYSEIDNAFGQGTKVEIKRTVAAPSVFIFPPSDEQLKSGTASVVCLLNNFYPREAKVQWKVDNALQSGNSQESVTEQDSKDSTYSLSSTLTLSKADYEKHKVYACEVTHQGLSSPVTKSFNRGEC
modifications: vc-seco-DUBA linker drug on the engineered cysteine at HC 41 (Kabat)
notes: also called 833c ADC
B4: 833d-vc-seco-DUBA (other)
heavy: QSLEESGGGLVQPGGSLRLSCAASGIDLSHYVVGWVRQACGKGLEWIGIIYGSGRTYYANWAKGRFTISRHNSKNTLYLQMNSLRAEDTAVYYCARDASVSVYYWGYFDLWGQGTLVTVSS[human IgG1 constant region not shown]
light: DIQMTQSPSSLSASVGDRVTITCQASQSIGSELAWYQQKPGQAPKLLIYRASTLESGVPSRFSGSGSGTEFTFTISSLQPEDLATYYCQQGYTYSEIDNAFGQGTKLEIKRTVAAPSVFIFPPSDEQLKSGTASVVCLLNNFYPREAKVQWKVDNALQSGNSQESVTEQDSKDSTYSLSSTLTLSKADYEKHKVYACEVTHQGLSSPVTKSFNRGEC
modifications: vc-seco-DUBA linker drug on the engineered cysteine at HC 41 (Kabat)
notes: also called 833d ADC
B5: 833b-vc-seco-DUBA (other)
heavy: EVQLVESGGGLVQPGGSLRLSCAASGIDLSHYVVGWVRQACGKGLEWVSIIYGSGRTYYANWAKGRFTISRDNSKNTLFLRMNSLRVEDTAVYFCARDASVSVYYWGYFDLWGQGTLVTVSS[human IgG1 constant region not shown]
light: AYDMTQSPSSVSASVGDRVTITCQASQSIGSELAWYQQKPGKAPKLLIYRASTLESGVPSRFSGSGSGTDFTLTISSLQPEDFATYYCQQGYTYSEIDNAFGGGTKVEIKRTVAAPSVFIFPPSDEQLKSGTASVVCLLNNFYPREAKVQWKVDNALQSGNSQESVTEQDSKDSTYSLSSTLTLSKADYEKHKVYACEVTHQGLSSPVTKSFNRGEC
modifications: vc-seco-DUBA linker drug on the engineered cysteine at HC 41 (Kabat)
notes: also called 833b ADC
B6: 825a-vc-seco-DUBA (other)
heavy: EVQLVESGGDLAQPGGSLRLSCAVSGIDLSSYGMGWVRQACGKGLEWVSIISRNSVTYYATWAKGRFTISRDNSKNTVYLQMTSLRAEDTALYFCARRATYSGALGYFDIWGQGTLVTVSS[human IgG1 constant region not shown]
light: EIVMTQSPSSLSASVGDRVTITCQASENIYSTLAWYQQKPGKAPKLLIYDAFDLASGVPSRFSGSGSGTDYTLTISSLQPEDFATYYCQQGYSGTNVDNAFGQGTKLEIKRTVAAPSVFIFPPSDEQLKSGTASVVCLLNNFYPREAKVQWKVDNALQSGNSQESVTEQDSKDSTYSLSSTLTLSKADYEKHKVYACEVTHQGLSSPVTKSFNRGEC
modifications: vc-seco-DUBA linker drug on the engineered cysteine at HC 41 (Kabat)
notes: also called 825a ADC
B7: 825b-vc-seco-DUBA (other)
heavy: EVQLEESGGGLVKPGGSLRLSCAASGIDLSSYGMGWVRQACGKGLEWVSIISRNSVTYYATWAKGRFTISRDNSKNTLYLQMNSLRAEDTAVYYCARRATYSGALGYFDIWGRGTLVTVSS[human IgG1 constant region not shown]
light: EIVMTQSPSSLSASVGDRVTITCQASENIYSTLAWYQQKPGKAPKLLIYDAFDLASGVPSRFSGSGSGTDYTLTISSLQPEDFATYYCQQGYSGTNVDNAFGQGTKLEIKRTVAAPSVFIFPPSDEQLKSGTASVVCLLNNFYPREAKVQWKVDNALQSGNSQESVTEQDSKDSTYSLSSTLTLSKADYEKHKVYACEVTHQGLSSPVTKSFNRGEC
modifications: vc-seco-DUBA linker drug on the engineered cysteine at HC 41 (Kabat)
notes: also called 825b ADC
B8: 825c-vc-seco-DUBA (other)
heavy: EVQLEESGGGLVKPGGSLRLSCAASGIDLSSYGMGWVRQACGKGLEWVSIISRNSVTYYATWAKGRFTISRDNSKNTLYLQMNSLRAEDTAVYYCARRATYSGALGYFDIWGRGTLVTVSS[human IgG1 constant region not shown]
light: GYDMTQSPSSVSASVGDRVTITCQASENIYSTLAWYQQKPGKAPKLLIYDAFDLASGVPSRFKGSGSGTEYTLTISSLQPEDFATYYCQQGYSGTNVDNAFGGGTKVEIKRTVAAPSVFIFPPSDEQLKSGTASVVCLLNNFYPREAKVQWKVDNALQSGNSQESVTEQDSKDSTYSLSSTLTLSKADYEKHKVYACEVTHQGLSSPVTKSFNRGEC
modifications: vc-seco-DUBA linker drug on the engineered cysteine at HC 41 (Kabat)
notes: also called 825c ADC
B9: 789a-vc-seco-DUBA (other)
heavy: EVKVEESGGGLVQPGGSLRLSCAASGFSLSSYWMSWVRQACGKGLEWVSIIAGRGSTYYASWAKGRFTISKDNSEGMVYLQMNSLRAEDTAVYYCARVSSIYYTFNLWGQGTTVTVSS[human IgG1 constant region not shown]
light: EIVLTQSPSSLSASVGDRVTITCQSSQSVYSNNELSWYQQKPGKAPKLLIYYASTLASGVPSRFSGSGSGTDFTLTISSLQPEDFATYYCQGSYYSGSGWYYAFGQGTKLEIKRTVAAPSVFIFPPSDEQLKSGTASVVCLLNNFYPREAKVQWKVDNALQSGNSQESVTEQDSKDSTYSLSSTLTLSKADYEKHKVYACEVTHQGLSSPVTKSFNRGEC
modifications: chain 1 pos 41: engineered Cys (Kabat HC 41) carrying the vc-seco-DUBA linker drug, written C; average DAR 1.8
notes: also called 789a ADC
B10: 789b-vc-seco-DUBA (other)
heavy: EVQLLESGGSLVLPGGSLRLSCAASGFSLSSYWMSWVRQACGKGLEWVSIIAGRGSTYYASWAKGRFTISRDNSKNTLYMQMNSLRAEDTALYFCARVSSIYYTFNLWGQGTLVTVSS[human IgG1 constant region not shown]
light: EIVLTQSPSSLSASVGDRVTITCQSSQSVYSNNELSWYQQKPGKAPKLLIYYASTLASGVPSRFSGSGSGTDFTLTISSLQPEDFATYYCQGSYYSGSGWYYAFGQGTKLEIKRTVAAPSVFIFPPSDEQLKSGTASVVCLLNNFYPREAKVQWKVDNALQSGNSQESVTEQDSKDSTYSLSSTLTLSKADYEKHKVYACEVTHQGLSSPVTKSFNRGEC
modifications: chain 1 pos 41: engineered Cys (Kabat HC 41) carrying the vc-seco-DUBA linker drug, written C; average DAR 1.7
notes: also called 789b ADC
B11: 789d-vc-seco-DUBA (other)
heavy: QSVEESGGGLVQPGGSLRLSCAASGFSLSSYWMSWVRQACGKGLEWIGIIAGRGSTYYASWAKGRFTISRDNSKNTLYLQMNSLRAEDTAVYYCARVSSIYYTFNLWGQGTLVTVSS[human IgG1 constant region not shown]
light: AQVLTQSPSSLSASVGDRVTITCQSSQSVYSNNELSWYQQKPGKAPKLLIYYASTLASGVPSRFSGSGSGTDFTLTISSLQPEDFATYYCQGSYYSGSGWYYAFGGGTKVEIKRTVAAPSVFIFPPSDEQLKSGTASVVCLLNNFYPREAKVQWKVDNALQSGNSQESVTEQDSKDSTYSLSSTLTLSKADYEKHKVYACEVTHQGLSSPVTKSFNRGEC
modifications: chain 1 pos 40: engineered Cys (Kabat HC 41) carrying the vc-seco-DUBA linker drug, written C; average DAR 1.7
notes: also called 789d ADC
B12: H8-vc-seco-DUBA (other)
heavy: QVQLVQSGAEVKKPGASVKVSCKASGYSFTGYYMHWVKQSPGQGLEWIGRINPNNGVTLYNQKFKDRVTMTRDTSISTAYMELSRLRSDDTAVYYCARSTMITNYVMDYWGQGTLVTVSS[human IgG1 constant region not shown]
light: DIVMTQSPDSLAVSLGERATINCKASQSVSNDVAWYQQKPGQSPKLLISYTSSRYAGVPDRFSGSGSGTDFTLTISSLQAEDVAVYFCQQDYNSPPTFGGGTKLEIKRTVAAPSVFIFPPSDEQLKSGTASVVCLLNNFYPREAKVQWKVDNALQSGNSQESVTEQDSKDSTYSLSSTLTLSKADYEKHKVYACEVTHQGLSSPVTKSFNRGEC
modifications: vc-seco-DUBA linker drug, random (non-site specific) attachment through native interchain disulfide bond cysteines

The test concerns the target T1, human 5T4 oncofoetal antigen. Put plainly: cell-based or functional assay.
For the molecule B1, the “Avg IC50, in vitro cytotoxicity, MDA-MB-468 cells” value (from here on “Avg IC50 … MDA-MB-468 cells”) came out at 140 pM and the “Avg IC50, in vitro cytotoxicity, PA-1 cells” value (shortened to “Avg IC50 … PA-1 cells”) came to 110 pM.
The corresponding values for B2 are 110 pM and 130 pM.
B3: the “Avg IC50 … MDA-MB-468 cells” value was found to be 130 pM and the “Avg IC50 … PA-1 cells” value is 130 pM.
Turning to B4, the “Avg IC50 … MDA-MB-468 cells” value is 120 pM and the “Avg IC50 … PA-1 cells” value is 180 pM.
Take B5: the “Avg IC50 … MDA-MB-468 cells” value is 100 pM and the “Avg IC50 … PA-1 cells” value was 130 pM.
Taken in the same sequence, the figures for B6 were 140 pM and 110 pM.
The corresponding values for B7 are 140 pM and 120 pM.
Taken in the same sequence, the figures for B8 were 120 pM and 90 pM.
Consider B9, for which the “Avg IC50 … PA-1 cells” value turned out to be 130 pM.
As for B10, the “Avg IC50 … MDA-MB-468 cells” value is 140 pM and the “Avg IC50 … PA-1 cells” value was found to be 110 pM.
In the case of B11, the “Avg IC50 … MDA-MB-468 cells” value came out at 100 pM and the “Avg IC50 … PA-1 cells” value worked out at 80 pM.
Taken in the same sequence, the figures for B12 were 110 pM and 90 pM.
